Common to all, as to assay: Primary Screen for Target Class Profiling of Small Molecule Inhibitors of Methyltransferases
Test [1] addresses Glycine N-methyltransferase (Homo sapiens) (UniProt Q14749). As to conditions: purified enzyme, MTase-Glo SAH luminescence; measured here: GNMT inhibition; at 40 µM; stronger effect = lower value. A digest of the protocol:
(§1)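 Each enzyme was assayed with SAM and its substrate. SAH formation detected by MTase-Glo luminescence; single-point 40 uM screen[…].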

Test [2] deals with Guanidinoacetate N-methyltransferase (Homo sapiens) (UniProt Q14353). As to conditions: purified enzyme, MTase-Glo SAH luminescence; measured here: GAMT inhibition; at 40 µM; stronger effect = lower value. A digest of the protocol:
as §1

Test [3] deals with Histamine N-methyltransferase (Homo sapiens) (UniProt P50135). As to conditions: purified enzyme, MTase-Glo SAH luminescence; measured here: HNMT inhibition; at 40 µM; stronger effect = lower value. A digest of the protocol: as §1
Test [4] has as its target Nicotinamide N-methyltransferase (Homo sapiens) (UniProt P40261). Particulars: purified enzyme, MTase-Glo SAH luminescence; measured here: NNMT inhibition; at 40 µM; stronger effect = lower value. Summed up: as §1
Test [5] has as its target Phenylethanolamine N-methyltransferase (Homo sapiens) (UniProt P11086). As to conditions: purified enzyme, MTase-Glo SAH luminescence; measured here: PNMT inhibition; at 40 µM; stronger effect = lower value. Summed up:
as §1

This is one part of the list. These are further read-outs of the screen, such as a control signal, another cell line or another target. No call is given for them.
% is set by controls: 0 for no effect and ±100 for the full control effect.

As for `Cn1c(=O)n(C)c2cc(S(=O)(=O)Nc3cccc4c3CCCC4)ccc21`, the activity change, negative = inhibition in test [1] is -0.701%; in test [2] it was 0%; in test [3] it was -0.08%; in test [4], -5%; in test [5], -0.975%.
Consider `Cc1c(NC(=O)c2cc3c(s2)CCCC3)cccc1-c1cn(C)c(=O)c(Nc2ccc(C3C(=O)N(C)CCN3C)cc2)n1` (stereo not given), for which the activity change, negative = inhibition in test [1] is -10.7%; in test [2] it was -8.41%; in test [3], -2.69%; in test [4], -24.2%; in test [5] it was -14%.
For `COCCN1C(=O)c2cc3occc3n2CC1(C)C(=O)NC1CCCCCCC1` (stereo not given), the activity change, negative = inhibition in test [1] is 5.73%; in test [2] it was 7.99%; in test [3], 9.05%; in test [4], 4.26%; in test [5] it was 3.02%.
With `CCc1ccccc1NC(=O)Cn1c(=O)oc2cc(S(=O)(=O)N3CCCCC3C)ccc21` (stereo not given), the activity change, negative = inhibition was 14.8% in test [1]; 0% in test [2]; 8.41% in test [3]; 6.1% in test [4]; 3.81% in test [5].
For `Cn1c(=O)c2ccc(C(=O)NC3CCCCC3)cc2n2c(=O)n(Cc3cccc(F)c3)nc12` the same measures were -3.89%, 0.844%, -1.75%, -5.13% and -3.03%.
As for `COc1ccc(CNC(=O)c2ncn3c2C(=O)N(C2CC2)C(C)(C(=O)NCc2ccc(OC)cc2)C3)cc1` (stereo not given), the activity change, negative = inhibition stood at 0.444% in test [1]; 0.595% in test [2]; 7.77% in test [3]; 1.71% in test [4]; 5.03% in test [5].
In the same order, the values of `O=C(CCC1CCCC1)Nc1ccc(-c2nnc3n2CCCC3)cc1` are -1.71%, 0.758%, -1.86%, -7.71% and 12.7%.
For `CCOC(=O)[C@@H](N)Cc1ccc(-c2cc(O[C@H](c3ccc(Cl)cc3-n3ccc(C)n3)C(F)(F)F)nc(N)n2)cc1` the same measures were -86.4%, 1.13%, 5.21%, -46.6% and -0.737%.
For `O=C(NN1CCCC1)NS(=O)(=O)c1ccc(Cl)cc1`, the activity change, negative = inhibition in test [1] is -0.745%; in test [2], 4.08%; in test [3] it was 2.65%; in test [4], -13.9%; in test [5], -8.88%.
Regarding `CCN(CC)Cc1cccc(NS(=O)(=O)NCc2ccccc2)c1`, the activity change, negative = inhibition in test [1] is -5.77%; in test [2], -8.75%; in test [3], -22.4%; in test [4], -12.1%; in test [5], 6.05%.
For `CC(=O)Nc1c2n(c3ccccc13)CC(C)(C(=O)NC1CCCCC1)N(C1CCCCC1)C2=O` (stereo not given), the activity change, negative = inhibition is 0.515% in test [1]; 3.46% in test [2]; -0.192% in test [3]; -1.47% in test [4]; 1.43% in test [5].
As for `COC(=O)C1=COC(O[C@@H]2O[C@H](CO)[C@@H](O)[C@H](O)[C@H]2O)/C(=C\COC(=O)/C=C/c2ccccc2)C1CC(=O)OCCc1ccc(O)cc1` (stereo not given in full), the activity change, negative = inhibition in test [1] is 2.6%; in test [2], 8.79%; in test [3], 0.466%; in test [4] it was -4.28%; in test [5] it was 7.85%.
For the compound `CCc1ccccc1OC[C@@H](O)CN[C@H]1CCCc2ccccc21`, the activity change, negative = inhibition in test [1] is -16.6%; in test [2], -2.47%; in test [3] it was -26.3%; in test [4], -18.5%; in test [5], -5.53%.
For `COc1ccccc1CNC(=O)C1(C)Cn2nc(-c3ccccc3)cc2C(=O)N1Cc1cccc(C)c1` (stereo not given), the activity change, negative = inhibition worked out at 1.89% in test [1]; 0.133% in test [2]; 9.25% in test [3]; 11% in test [4]; 3.31% in test [5].
In the case of `CCCSCCCN1C(=O)c2cc3occc3n2CC1(C)C(=O)NC1CCCCC1` (stereo not given), the activity change, negative = inhibition in test [1] is 3.33%; in test [2] it was -13.6%; in test [3] it was 7.19%; in test [4], 13%; in test [5], 3.76%.
For `COc1ccc(C(=O)N[C@@H]2CN(C(=O)Nc3cccc(C(F)(F)F)c3)CCC[C@H]2O)cc1`, the activity change, negative = inhibition in test [1] was -8.16%; in test [2], -11.1%; in test [3], -6.89%; in test [4], -15.6%; in test [5], -2.12%.
In the same order, the values of `COc1ccc(OC)c(S(=O)(=O)N2CCc3nc(-c4ccccc4)[nH]c3C2)c1` are 0.469%, -2.38%, 12.4%, -11.9% and 0.109%.
For the compound `COc1ccc2c(OCc3nnc4ccc(-c5ccccc5)nn34)ccnc2c1`, the activity change, negative = inhibition in test [1] was 3.24%; in test [2], 1.15%; in test [3], 4.29%; in test [4], -11.9%; in test [5], -6.46%.
In the case of `COc1ccc(-c2cc3n(n2)CC(C)(C(=O)NC2CCCCC2)N(CCCOC(C)C)C3=O)cc1` (stereo not given), the activity change, negative = inhibition in test [1] was -1.14%; in test [2], 0.445%; in test [3] it was 4.78%; in test [4], 0.193%; in test [5], -0.253%.
Regarding `C=C1[C@H](OC(C)=O)[C@H]2[C@@H](OC(C)=O)[C@](C)(OC(C)=O)C[C@]2(OC(C)=O)C(=O)[C@H](C)/C=C/C(C)(C)C(=O)[C@H](OC(=O)C(C)C)[C@H]1OC(C)=O`, the activity change, negative = inhibition in test [1] is -0.981%; in test [2], 1.53%; in test [3] it was 10.9%; in test [4], -14%; in test [5] it was -8.55%.
With `CC(C)OCCCn1c(=O)c2ccccc2n2c(SCc3ccccc3Cl)nnc12`, the activity change, negative = inhibition in test [1] is -3.68%; in test [2], 2.86%; in test [3] it was 9.87%; in test [4], -4.7%; in test [5] it was 5.25%.
With `Cc1noc(-c2ccccc2Cl)c1C(=O)NCCCc1ccccc1`, the activity change, negative = inhibition in test [1] is -11%; in test [2], -9.21%; in test [3] it was -5.38%; in test [4] it was -24.6%; in test [5], -14.6%.
As for `CN1C(=O)c2cc3ccccc3n2CC1(C)C(=O)NCC(=O)N1CCCCC1` (stereo not given), the activity change, negative = inhibition in test [1] was -7.25%; in test [2] it was 5.2%; in test [3] it was -3.37%; in test [4], -4.44%; in test [5] it was 0.927%.
For the compound `O=C1CCCCC(C(=O)N2CC=C(c3ccccc3)CC2)N1` (stereo not given), the activity change, negative = inhibition in test [1] was -8.96%; in test [2], -3.29%; in test [3], -1.33%; in test [4] it was -6.28%; in test [5] it was -0.858%.
For `C=C(C(=O)O)C1CCC2(C)CCC(O)C(=C)C2C1` (stereo not given), the activity change, negative = inhibition in test [1] is 1.33%; in test [2], 1.78%; in test [3], 10.4%; in test [4], -11.9%; in test [5], 4.36%.
For `COC1CCN(CC2CCCCCN2C(=O)c2cc(F)ccc2F)CC1` (stereo not given), the activity change, negative = inhibition was -2.29% in test [1]; -9.42% in test [2]; -5.11% in test [3]; -16.4% in test [4]; -10.4% in test [5].
For `CC(C)Cn1c(=O)c2ccc(C(=O)NC(C)C)cc2n2c(SCc3cccc(F)c3)nnc12`, the activity change, negative = inhibition in test [1] is 0.081%; in test [2] it was -12.2%; in test [3] it was 8.8%; in test [4], -3.62%; in test [5], -8.16%.
In the same order, the values of `CN1CCN(C2=Nc3ccccc3Oc3ccc(Cl)cc32)CC1` are -8.72%, 2.73%, -0.665%, -10.4% and 5.04%.
For `COc1cccc(N2CCN(S(=O)(=O)c3ccc4[nH]c5c(c4c3)CCCC5)CC2)c1` the same measures were -2.71%, 1.67%, -2.08%, -2.84% and 0.038%.
In the same order, the values of `CCn1nc(CC(C)C)cc1C(=O)N(C)Cc1cccc(-n2cccn2)c1` are -7.44%, -5.23%, -2.36%, -16.9% and -11%.
As to `COCC(=O)NC1CCC12CCN(C(=O)c1ccc3ccccc3n1)CC2` (stereo not given), the activity change, negative = inhibition in test [1] is -1.47%; in test [2], -3.88%; in test [3], 2.07%; in test [4], -6.57%; in test [5] it was -2.14%.
As to `CN1C(=O)c2cc(C(=O)N3CCC(Cc4ccccc4)CC3)nn2CC1(C)C(=O)NCc1ccccc1` (stereo not given), the activity change, negative = inhibition in test [1] is -3.63%; in test [2], 4.28%; in test [3] it was -0.575%; in test [4], -1.16%; in test [5], 0.724%.
As to `CN1C2CCC1CC(OC(=O)c1c[nH]c3ccccc13)C2` (stereo not given), the activity change, negative = inhibition is -8.29% in test [1]; 3.22% in test [2]; -10.7% in test [3]; -9.53% in test [4]; 4.15% in test [5].
For the compound `CC(C)NC(=O)c1ccc2c(=O)n(C)c3nn(CC(=O)Nc4cccc(F)c4)c(=O)n3c2c1`, the activity change, negative = inhibition in test [1] is 7.27%; in test [2], 1.99%; in test [3], 11.2%; in test [4] it was 0.028%; in test [5] it was 9.17%.
Consider `CNc1cccnc1OC1CCN(S(=O)(=O)c2ccc3c(c2)CCC3)C1` (stereo not given), for which the activity change, negative = inhibition was -10.6% in test [1]; -12.1% in test [2]; -5.25% in test [3]; -21.2% in test [4]; -13.2% in test [5].
For the compound `Cc1ccc(NC(=O)Cn2nc3n(CCCOC(C)C)c(=O)c4ccccc4n3c2=O)c(C)c1`, the activity change, negative = inhibition was 2.14% in test [1]; 4.91% in test [2]; -0.935% in test [3]; -5.39% in test [4]; 2.43% in test [5].
`CC1=CC[C@]2(C(=O)O[C@@H]3O[C@H](CO[C@@H]4O[C@H](CO)[C@@H](O[C@@H]5O[C@@H](C)[C@H](O)[C@@H](O)[C@H]5O)[C@H](O)[C@H]4O)[C@@H](O)[C@H](O)[C@H]3O)CC[C@]3(C)C(CCC4[C@@]5(C)C[C@@H](O)[C@H](O)[C@@](C)(CO)C5CC[C@]43C)C2C1C` (stereo not given in full): the activity change, negative = inhibition in test [1] is 4.76%; in test [2], 4.4%; in test [3] it was 7.67%; in test [4], -9.07%; in test [5] it was 5.03%.

(Values after PubChem BioAssay AID1745853 (National Center for Advancing Translational Sciences (NCATS), 2022).)
